Data reported in publication PMC9098178, “SAR of Novel 3-Arylisoquinolinones: meta-Substitution on the Aryl Ring Dramatically Enhances Antiproliferative Activity through Binding to Microtubules” (Journal of Medicinal Chemistry, 2022).

System: HepG2 cells
Assay: Cell cycle analysis by flow cytometry

O=c1[nH]c(-c2cccc(F)c2)cc2cc(F)ccc12 [compound 4, 6-Fluoro-3-(3-fluorophenyl)isoquinolin-1(2H)-one]
sub-G0/G1 cell population (2 μM and 5 μM, 24 h, compared to control): significant sub-G0/G1 cell population | cells in S phase (5 μM, 24 h treatment): 12.4 ± 2.2%
